First the molecules themselves.
T1: UNK ZnF1-3 (human, UniProt Q9C0B0 31-174)
T1 sequence: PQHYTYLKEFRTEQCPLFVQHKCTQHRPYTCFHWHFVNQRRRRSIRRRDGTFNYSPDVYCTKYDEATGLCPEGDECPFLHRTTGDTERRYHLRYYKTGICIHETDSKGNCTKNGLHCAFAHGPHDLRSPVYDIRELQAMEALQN

B1: 56308798_56309970_2096_CDS_ENSG00000134852_ENST00000309964|human|control|control (ssRNA)
RNA: GGGAGUUCUACAGUCCGACGAUCACUCUGAGUUGAUGUACUCUGUAAAGUCUGUUGUUGUAUCAUGUGCUGAGUUGUGCCAAUGUGUCCAGUAUUCAUUCCACUUUGAAUCUGGUUAGUAGGAACAACUUGGCCUUGCAUAUUCAACAGAGGAUUGAGCAUCA
B2: 31027585_31033313_607_CDS_ENSMUSG00000000194_ENSMUST00000056433|mouse|control|control (ssRNA)
RNA: GGGAGUUCUACAGUCCGACGAUCAAAGAAGAACUGAAAUGAGACCACCCCGUCAUUCUUGUGAAUUGAGAAGGAUCGCUCUGUGAUAGCCUUUGAGUCCACUGUACUUCGUCCAGCCUUGAAACCAUCGAGGGUUCUCCGAGCCAACAGAGGAUUGAGCAUCA
B3: chr2:216981417:216981418:+_ENSG00000079246_ENST00000392132|hu_hu|hu_hu_hu_mus_True|8_58 (ssRNA)
RNA: GGGAGUUCUACAGUCCGACGAUCCUGAUACUGGUCCUUGCCAGCAAGGGCAUUAUCAGUGCCAUCUGUGCCAUAGAGGACUAAAGCAAUCUCAUCUUUGCUCUCCGAAAAUACCUGUCGUUGGACAAACAUGGUUAUCACUUUCAACAGAGGAUUGAGCAUCA
B4: 85930467_85930587_296_CDS_ENSG00000153904_ENST00000284031|human|control|control (ssRNA)
RNA: GGGAGUUCUACAGUCCGACGAUCCGUCUCCUCGCACACCACGGCCACGUCCUCCACGAAGACGCAGUCCGGAAGGCUCUCGUCGGCCGGCAGCUCCACCACCUGCAGCCCCAGCUUGCUGCCCAGCACGCCCACGUAGAGCUGCAACAGAGGAUUGAGCAUCA
B5: 72132853_72133131_1361_CDS_ENSG00000140829_ENST00000268482|human|control|control (ssRNA)
RNA: GGGAGUUCUACAGUCCGACGAUCAAUUCCUUCUUCGCCCUCCUCACGUCUUCCUCGGCCCCUGGACAGACGCGGGGUGGACCCCAAGUGUCUUCUGUCAUCGGCCCACUCGUUAUAUUUGUAGGAGGGAGUUGGCAGAGGCGUCAACAGAGGAUUGAGCAUCA
B6: 70196805_70196925_1599_CDS_ENSG00000138346_ENST00000358410|human|control|control (ssRNA)
RNA: GGGAGUUCUACAGUCCGACGAUCCUUCACAUAUCCUCUAGACAAAGCAAACAGUGACCUUUCUUCUCCACUUACAAUAACUCUGUCACCUGCCAUUAGAUUUGUGACAGGUAUGGCACCAUGUUUACAUUGGAAAUUAUGUAACAACAGAGGAUUGAGCAUCA
B7: chr3:9412954:9412955:+_ENSG00000134077_ENST00000452837|hu_mus|hu_hu_hu_mus_False|38_48 (ssRNA)
RNA: GGGAGUUCUACAGUCCGACGAUCGGUUGAUAUCUCUUCUUUGAUGGCUGGAUUUUCAUAAUAGUCCAAGAUAUGUGAAUCUGAAGUAUGGCUAGUGAACUCUUUUUUACCAUCUUUCUCAUCUGCUUUGUCUCCUUGUCCACACAACAGAGGAUUGAGCAUCA
B8: chr1:58468927:58468928:-_ENSMUSG00000026034_ENSMUST00000148330|mus_mus|mus_mus_mus_hu_False|68_98 (ssRNA)
RNA: GGGAGUUCUACAGUCCGACGAUCAAUUACUGAAAAAUGAAAGAUGUACCUUAGCUAUGUACUUAAUUUAAUAAAGCACCCAAACAAAAUAAACAUGGCAAUAUAAAAAUGUUAAGAAUUUACAAAGCUGUACAAAAUAACUUACAACAGAGGAUUGAGCAUCA
B9: 21596471_21596591_2560_3pUTR_ENSG00000124766_ENST00000244745|human|control|control (ssRNA)
RNA: GGGAGUUCUACAGUCCGACGAUCGGGGGUGCAGACAAGUCCGGAAGCUCGUUGGAAGGGGGAGGGGGUCUCUUCAAGCAAAGGGGAGCAAACUCGAAGUCGCUUUUUUUUUUUUGCCAUCAACAACAACAUCAAUAACAACAACAACAGAGGAUUGAGCAUCA
B10: 153593795_153594452_1386_CDS_ENSG00000196924_ENST00000420627|human|control|control (ssRNA)
RNA: GGGAGUUCUACAGUCCGACGAUCCCGCACACCCUUGGGCUGGAGGCCCCGGCCAACCGCCCGGCAGGCACUCGGGUUACAGGCUUGGCCAACAGUGACAGUGUAGGGGCUGCGAGGGAUGGGCACGCCGGCAAACGUGACGUGCAACAGAGGAUUGAGCAUCA
B11: chr1:120503909:120503910:+_ENSMUSG00000064302_ENSMUST00000049404|mus_hu|FALSE|FALSE (ssRNA)
RNA: GGGAGUUCUACAGUCCGACGAUCAUAUAUCACCUUUCGUGGUGUCAGCUGUGAAAGGGGCCCCACACAGACCAUACGCACAAGAAAAUAGGCUAAGGAGGAAGAACACAAAGUAACACCCCACCCCACCCCCAAAUAUGUUAUCAACAGAGGAUUGAGCAUCA
B12: 123607306_123607426_2708_ncRNA_ENSMUSG00000025245_ENSMUST00000165754|mouse|control|control (ssRNA)
RNA: GGGAGUUCUACAGUCCGACGAUCGGUUUGAGUUUAAAAACAAAGCACAACAGUGGAAAAAAGGAGAAUCAGUGCCACACGAGACAGGUACGAGACAGGGGCACAGUGAUUACGCAGUACAUGCUGUAGAAGACAGGCAUCACACAACAGAGGAUUGAGCAUCA
B13: chr3:7442581:7442582:+_ENSMUSG00000027499_ENSMUST00000028999|mus_mus|FALSE|FALSE (ssRNA)
RNA: GGGAGUUCUACAGUCCGACGAUCUGUACUGUACGAUACAAAACGGCGUAAGUAACAGCACUCACACACAGGGACAUAAUGCUAACUGUGCUCUCUGGAUGGUUCUUUUUGUGAGUCAAUACUCCAGCCAGAGAUACUGAAACUCAACAGAGGAUUGAGCAUCA
B14: chr1:168165803:168165804:+_ENSG00000143155_ENST00000367833|hu_hu|FALSE|FALSE (ssRNA)
RNA: GGGAGUUCUACAGUCCGACGAUCAUUCAUUCUGAUAAGCACCCCAUCAAUUCUCAAGAAAAACCGCAACAGCAGGAAAAAGCUAGAAGGCAUUACUCUAAUCUUCACACUCAGGCUUGAAACUCCAUGAUCAUGAAGUUCAUCCAACAGAGGAUUGAGCAUCA
B15: 122550611_122550731_2855_CDS_ENSMUSG00000020124_ENSMUST00000020334|mouse|control|control (ssRNA)
RNA: GGGAGUUCUACAGUCCGACGAUCGCUGUCUUCGUCACUUUCCAGGGGGAUACCUGUGGCAGCUGAAGCACCUUUAGUUUCUCGGUCAAGAGGGAAGAAGCCAGUCCCACUGAAAGUGUCCUGUCUCUGGUAGAAGAGCACGUACAACAGAGGAUUGAGCAUCA
B16: chr9:21333030:21333031:-_ENSG00000198642_ENST00000537938|hu_mus|motif|central (ssRNA)
RNA: GGGAGUUCUACAGUCCGACGAUCAAGGGGAUGAACAAGACCACCCAUGAUACACUGAAAAGGUAUUACACCUUGGAUCGGAGAAUGAUCUGAAGGUGCUGAAAGAGGUGAUUCUCUAGAAGGUGACCCAGGGUUUUCUUCAGGCAACAGAGGAUUGAGCAUCA
B17: 24495524_24502816_505_CDS_ENSG00000112294_ENST00000357578|human|control|control (ssRNA)
RNA: GGGAGUUCUACAGUCCGACGAUCUCUGGCAAGGUCAUCCUUAUUUUGUAUCAUUAAAUUGUACCACUUCCGAAGUAAUGAACUCCUCUCCUUGGCGGAGACCUCCCUCCAGCGGCAGAAAGCCUCGUAGGCAGCGCGCACGGCCAACAGAGGAUUGAGCAUCA
B18: chr1:235506153:235506154:+_ENSG00000152904_ENST00000391855|hu_hu|motif|central (ssRNA)
RNA: GGGAGUUCUACAGUCCGACGAUCCUACUCACCUAUUUACUGUUUCUGGAGAAUAACAAAUUUUUUAAAAGGUGGUAAGGCGGAAAGACAAAAAAAAGAUUAACUAAAAUAAGCUAUGAGGUCCAAUCAAGAAUGGCUUAACAUCAACAGAGGAUUGAGCAUCA
B19: 119723044_119728423_141_5pUTR_ENSMUSG00000033943_ENSMUST00000110774|mouse|control|control (ssRNA)
RNA: GGGAGUUCUACAGUCCGACGAUCCUGUUUCUCUUCCAUGAUUCCAGUGAGAAAUUCAGUAGUAAGAAAACUGUAGUCAAUUCAUAGUUACAAAUGCUUUUUCAUCCGUGCGGGGCGUGGCCGGCCUCACCCCGAGUCCUUCACCAACAGAGGAUUGAGCAUCA
B20: chr14:76904430:76904431:+_ENSMUSG00000022010_ENSMUST00000022587|mus_mus|mus_mus_mus_hu_True|18_28 (ssRNA)
RNA: GGGAGUUCUACAGUCCGACGAUCUGCAGCCAAAAACACCCUCGUGGAAAAAAAGAGGGAACACCAGCAGCCUUGUAUAAGCUAGAUAAAAUCUUCUGGCUUUCCGCAGCUCAGGGCGUGAGAACGGACGGCAGCCCUAAUUUACAACAGAGGAUUGAGCAUCA
B21: 53442044_53449486_251_CDS_ENSG00000072501_ENST00000322213|human|control|control (ssRNA)
RNA: GGGAGUUCUACAGUCCGACGAUCCAGGGUCUUUACCCGCAGGUUGCUGGUUUUUUCACCUAGCACAAAGCUGAUGGCAUCCAUGAGAUUUGACUUACCAGAGCCAUUGGGUCCAAUGAUGGCGGUGAACCUCUGAAAUGGUCCCAACAGAGGAUUGAGCAUCA
B22: chr1:65217810:65217811:-_ENSMUSG00000025950_ENSMUST00000097709|mus_mus|FALSE|FALSE (ssRNA)
RNA: GGGAGUUCUACAGUCCGACGAUCAGCCUCUGCAGCAUCUUUGGUGACCUGGUCAUUGGUGGCAUCACGAUUCUCUAUGCCUAAAUCAUAGCUAUGCAGAUCCAGUUCCACAUAGGGAAGAAUAAGUUUUUCCUUAAUCAAUUCCAACAGAGGAUUGAGCAUCA

The list shows a part of the results.

This test deals with T1, UNK ZnF1-3. In words: nsRBNS (natural sequence RNA bind-n-seq); RBNS binding buffer (assumed for nsRBNS): 25 mM Tris pH 7.5, 150 mM KCl, 3 mM MgCl2, 0.01% Triton X-100, 500 ug/ml BSA, 20 U/ml SUPERase-In, 4 C; UNK is unkempt and MSI1 is Musashi-1; names of the RNAs are library labels; protein concentration not given here; high values mean tight binding.
In the case of B1, the binding signal came to 0.377 enrichment R. In the case of B2 it was 1.21 enrichment R; in that of B3, 0.779 enrichment R. In the case of B4 it was 0.946 enrichment R; in that of B5, 1.16 enrichment R.

Regarding B6, the binding signal came to 0.803 enrichment R.

With B7, the binding signal stood at 0.367 enrichment R. Under B8 stands 1.7 enrichment R; under B9, 1.66 enrichment R. Under B10 stands 0.846 enrichment R; under B11, 2.3 enrichment R. Turning to B12, the binding signal was determined as 2.04 enrichment R.

Turning to B13, the binding signal is 0.849 enrichment R.

For the molecule B14, the binding signal was found to be 1.8 enrichment R. As to B15, the binding signal came to 1.01 enrichment R. Under B16 stands 1.02 enrichment R; under B17, 1.12 enrichment R. B18 returned a binding signal of 3.18 enrichment R. In turn, B19 showed a binding signal of 0.904 enrichment R. B20 gave a binding signal of 1.64 enrichment R. Under B21 stands 0.701 enrichment R.

As to B22, the binding signal was found to be 1.12 enrichment R.

Source of the values: publication PMC12136788.
